# From a collection of fitness landscapes (doi:10.1016/j.celrep.2020.107928)
# Whole data set: some 81,000 sequences, median “one-hybrid fitness for binding parS DNA” near -0.17, cut for the highest 2% near 0.51. This is one part of the list.
# B1: Caulobacter ParB omega fusion; a variant is named by its letters at X, in order, B8GW30 (parent)
# chain: MESVVVGEPGMSEGRRGLGRGLSALLGEVDAAPAQAPGEQLGGSREAPIEILQRNPDQPRRTFREEDLEDLSNSIREKGVLQPILVRPSPDTAGEYQIVAGERAWRAAQRAGLKTVPIMVRELDDLAVLEIGIIENVQRADLNVLEEALSYKVLMEKFERTQENIAQTIGKSXSHVANXMRLLXLPDEVQSYLVSGELTAXHARAIAAAADPVALAKQIIEGGLSVRETEALARKAPNLSAGKSKGGRPPRVKDTDTQALESDLSSVLGLDVSIDHRGSTGTLTITYATLEQLDDLCNRLTRGI
# Variants of: B1
# Assay: one-hybrid fitness for binding parS DNA (scaled: cognate 1, non-cognate 0); higher = stronger binding
# Conditions: with parS DNA site
# Summary of the method: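 On M9-minus-histidine containing 0.1 mM IPTG and 5 mM 3-AT, E. coli USO cells with a HIS3 reporter, site 19 bp from the promoter, grew 48 hours at 37°C to select Caulobacter ParB libraries randomised at four specificity codons. Plasmids from before and after were Illumina-sequenced, with three replicate libraries pooled and variants under 10 reads left out. Fitness is the log change in variant-to-wild-type read ratio, rescaled against cognate and non-cognate.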
row,Variant,one-hybrid fitness for binding parS DNA
1,EAWY,≤ 0.2
2,RMWW,0.227
3,NPTW,≤ 0.2
4,MDTN,≤ 0.2
5,SNMR,≤ 0.2
6,NAKW,≤ 0.2
7,DIPG,≤ 0.2
8,IRCL,≤ 0.2
9,VRPK,≤ 0.2
10,QSWM,≤ 0.2
11,APST,≤ 0.2
12,RSHE,≤ 0.2
13,LIKS,≤ 0.2
14,APRP,≤ 0.2
15,NQFS,≤ 0.2
16,ISRG,≤ 0.2
17,AMYR,≤ 0.2
18,TKWS,≤ 0.2
19,GAFT,≤ 0.2
20,PTTK,≤ 0.2
21,AMRD,≤ 0.2
22,NLMR,≤ 0.2
23,YAKT,≤ 0.2
24,KAAI,≤ 0.2

row,Variant,one-hybrid fitness for binding parS DNA
1,WSPD,≤ 0.2
2,PTWK,≤ 0.2
3,EQTY,≤ 0.2
4,TESF,≤ 0.2
5,HREY,≤ 0.2
6,ECNR,≤ 0.2
7,KNHI,≤ 0.2
8,KSNY,≤ 0.2
9,LTHS,≤ 0.2
10,MPRV,≤ 0.2
11,TITA,≤ 0.2
12,RYQK,≤ 0.2
13,SRFR,≤ 0.2
14,DCMT,≤ 0.2
15,CGSH,≤ 0.2
16,NVWF,≤ 0.2
17,RFQY,0.462
18,NTAC,≤ 0.2
19,EKKL,≤ 0.2
20,HTTC,≤ 0.2
21,SASY,≤ 0.2
22,ASDV,≤ 0.2
23,YLNG,≤ 0.2
24,TECC,≤ 0.2

row,Variant,one-hybrid fitness for binding parS DNA
1,LTWG,≤ 0.2
2,QMFD,≤ 0.2
3,SEQG,≤ 0.2
4,APQR,≤ 0.2
5,YRND,≤ 0.2
6,CSEG,≤ 0.2
7,EWDS,≤ 0.2
8,RNKA,0.541
9,IWLF,≤ 0.2
10,CDGK,≤ 0.2
11,SDNH,≤ 0.2
12,TGPI,≤ 0.2
13,ARKN,≤ 0.2
14,NQKL,≤ 0.2
15,WDVT,≤ 0.2
16,SPHN,≤ 0.2
17,MLGI,≤ 0.2
18,RVIE,≤ 0.2
19,HPKL,≤ 0.2
20,VYLY,≤ 0.2
21,GSRA,≤ 0.2
22,WDVR,≤ 0.2
23,KLRA,≤ 0.2
24,NPRY,≤ 0.2

row,Variant,one-hybrid fitness for binding parS DNA
1,QMQY,≤ 0.2
2,IDMW,≤ 0.2
3,LVSP,≤ 0.2
4,DRRI,≤ 0.2
5,NART,≤ 0.2
6,PNRM,≤ 0.2
7,RPVW,≤ 0.2
8,CFAC,≤ 0.2
9,TQTW,≤ 0.2
10,GHQP,≤ 0.2
11,TAMV,≤ 0.2
12,RRES,0.752
13,APHM,≤ 0.2
14,HKEP,≤ 0.2
15,HAHA,≤ 0.2
16,PENA,≤ 0.2
17,GLKF,≤ 0.2
18,QMDN,≤ 0.2
19,VLTW,≤ 0.2
20,HTHI,≤ 0.2
21,PYTL,≤ 0.2
22,TNSI,≤ 0.2
23,CAKA,≤ 0.2
24,RWLR,≤ 0.2

row,Variant,one-hybrid fitness for binding parS DNA
1,CKCC,0.341
2,DRSM,≤ 0.2
3,QLPN,≤ 0.2
4,WKSA,≤ 0.2
5,STEL,≤ 0.2
6,RCVK,≤ 0.2
7,QDTA,≤ 0.2
8,KVKT,≤ 0.2
9,VMHS,≤ 0.2
10,PTYL,≤ 0.2
11,LKTW,≤ 0.2
12,EDSM,≤ 0.2
13,WVEF,≤ 0.2
14,LDTL,≤ 0.2
15,TLGG,≤ 0.2
16,GNKK,≤ 0.2
17,FGTT,≤ 0.2
18,PCFY,≤ 0.2
19,VATR,≤ 0.2
20,PMNS,≤ 0.2
21,KNIE,0.307
22,AMPC,≤ 0.2
23,QQQR,≤ 0.2
24,LNKT,≤ 0.2

row,Variant,one-hybrid fitness for binding parS DNA
1,NVSL,≤ 0.2
2,VWRC,≤ 0.2
3,NALS,≤ 0.2
4,FHNS,≤ 0.2
5,MVHL,≤ 0.2
6,TLAY,≤ 0.2
7,DACN,≤ 0.2
8,RIAL,≤ 0.2
9,VPQD,≤ 0.2
10,HSPA,≤ 0.2
11,CMAE,≤ 0.2
12,MVER,≤ 0.2
13,LLSL,≤ 0.2
14,TWHV,≤ 0.2
15,KTTV,≤ 0.2
16,TDMS,≤ 0.2
17,NVMR,≤ 0.2
18,ASYC,≤ 0.2
19,FWLR,≤ 0.2
20,NVKV,≤ 0.2
21,NPRR,≤ 0.2
22,TVAL,≤ 0.2
23,MSCK,0.204
24,TMFC,≤ 0.2

row,Variant,one-hybrid fitness for binding parS DNA
1,ERFT,≤ 0.2
2,NSLE,≤ 0.2
3,RSMG,0.962
4,VAVC,≤ 0.2
5,KDTE,≤ 0.2
6,PFHH,≤ 0.2
7,ADAE,≤ 0.2
8,HPNM,≤ 0.2
9,YSNR,≤ 0.2
10,DSKY,≤ 0.2
11,KERR,≤ 0.2
12,RGMG,0.604
13,WMMR,≤ 0.2
14,WAQR,≤ 0.2
15,IEVR,≤ 0.2
16,HARF,≤ 0.2
17,YVRR,≤ 0.2
18,RSHN,0.412
19,YCRH,≤ 0.2
20,QLDP,≤ 0.2
21,EIKR,≤ 0.2
22,LCNH,≤ 0.2
23,LDTN,≤ 0.2
24,RSAS,0.998

row,Variant,one-hybrid fitness for binding parS DNA
1,KVPA,≤ 0.2
2,MRNT,≤ 0.2
3,FIFV,≤ 0.2
4,SCKH,≤ 0.2
5,GAHV,≤ 0.2
6,TRWH,≤ 0.2
7,HDRM,≤ 0.2
8,WTRM,≤ 0.2
9,SQSI,≤ 0.2
10,SILL,≤ 0.2
11,TYTN,≤ 0.2
12,PHPI,≤ 0.2
13,RVVP,≤ 0.2
14,VWTV,≤ 0.2
15,ELNA,≤ 0.2
16,RVLR,≤ 0.2
17,RLFY,0.467
18,AWGS,≤ 0.2
19,LRNY,≤ 0.2
20,ITCT,≤ 0.2
21,NCAT,≤ 0.2
22,KWVD,≤ 0.2
23,AYAA,≤ 0.2
24,DNAL,≤ 0.2

row,Variant,one-hybrid fitness for binding parS DNA
1,ETPV,≤ 0.2
2,LFNN,≤ 0.2
3,NRCR,≤ 0.2
4,HSTS,≤ 0.2
5,NVYL,≤ 0.2
6,STDC,≤ 0.2
7,KRKE,≤ 0.2
8,FLVT,≤ 0.2
9,CISN,≤ 0.2
10,VRWH,0.223
11,SVPL,≤ 0.2
12,INKR,≤ 0.2
13,KAMS,≤ 0.2
14,SSSM,≤ 0.2
15,EHVV,≤ 0.2
16,VMNY,≤ 0.2
17,PQTV,≤ 0.2
18,ADVI,≤ 0.2
19,QHWA,≤ 0.2
20,ITGT,≤ 0.2
21,CPKS,≤ 0.2
22,SKKM,≤ 0.2
23,YTNH,≤ 0.2
24,CTIN,≤ 0.2

row,Variant,one-hybrid fitness for binding parS DNA
1,GEDF,≤ 0.2
2,RHVE,≤ 0.2
3,APIN,≤ 0.2
4,RKIL,≤ 0.2
5,WPTR,≤ 0.2
6,RMPT,0.625
7,HWPK,≤ 0.2
8,VNWT,≤ 0.2
9,AAYD,≤ 0.2
10,FRAG,≤ 0.2
11,KKSF,≤ 0.2
12,TLEQ,≤ 0.2
13,SAAY,≤ 0.2
14,NSGT,≤ 0.2
15,KCRS,≤ 0.2
16,GPWT,≤ 0.2
17,VERQ,≤ 0.2
18,QFLF,≤ 0.2
19,RSTA,0.578
20,RIWF,0.282
21,HSIY,≤ 0.2
22,RANR,≤ 0.2
23,TRNQ,≤ 0.2
24,KQIS,≤ 0.2

row,Variant,one-hybrid fitness for binding parS DNA
1,YGPM,≤ 0.2
2,EYMV,≤ 0.2
3,CNTA,≤ 0.2
4,RYTC,0.903
5,WTKT,≤ 0.2
6,GLLK,≤ 0.2
7,QPLG,≤ 0.2
8,TKHK,≤ 0.2
9,QHDR,≤ 0.2
10,VGWL,≤ 0.2
11,RNSP,≤ 0.2
12,TCHC,≤ 0.2
13,YRKQ,≤ 0.2
14,RAAS,1
15,RKPE,≤ 0.2
16,SDQC,≤ 0.2
17,QSPQ,≤ 0.2
18,VKRC,≤ 0.2
19,WVIR,≤ 0.2
20,QGAR,≤ 0.2
21,KIYS,≤ 0.2
22,AVAG,≤ 0.2
23,QDYV,≤ 0.2
24,LPQD,≤ 0.2

row,Variant,one-hybrid fitness for binding parS DNA
1,RRCT,0.587
2,SNSC,≤ 0.2
3,MFPG,≤ 0.2
4,SIPY,≤ 0.2
5,TVAV,≤ 0.2
6,SNYL,≤ 0.2
7,LKMC,≤ 0.2
8,RADH,≤ 0.2
9,PDKA,≤ 0.2
10,LTQG,≤ 0.2
11,TVPL,≤ 0.2
12,RWGA,0.386
13,PGIR,≤ 0.2
14,CKTW,≤ 0.2
15,MMTI,≤ 0.2
16,RIGM,0.268
17,RHSM,0.261
18,AEHC,≤ 0.2
19,ERCT,≤ 0.2
20,TYKH,≤ 0.2
21,VVGC,≤ 0.2
22,PWRF,≤ 0.2
23,NCHI,≤ 0.2
24,CRQF,≤ 0.2

row,Variant,one-hybrid fitness for binding parS DNA
1,NHNG,≤ 0.2
2,TTEA,≤ 0.2
3,KVCR,≤ 0.2
4,ASRN,≤ 0.2
5,LSKH,≤ 0.2
6,GWNG,≤ 0.2
7,KRQM,≤ 0.2
8,YEGS,≤ 0.2
9,QYDY,≤ 0.2
10,TTQS,≤ 0.2
11,DETC,≤ 0.2
12,TGMW,≤ 0.2
13,HYYV,≤ 0.2
14,TLLE,≤ 0.2
15,HQIG,≤ 0.2
16,PLKK,≤ 0.2
17,HYKN,≤ 0.2
18,LKES,≤ 0.2
